We go through 27 compounds from the antibiotic and cytotoxicity screens of Wong et al. (2023).

For one assay, the system named is HSkMC. Kind of assay: cytotoxicity call (relative viability < 0.9). The settings on record: 10 µM.
The test system of a further assay is HepG2. Kind of assay: cytotoxicity call (relative viability < 0.9). The settings on record: 10 µM.
Another assay has as its system S. aureus RN4220. Kind of assay: growth inhibition call (relative growth <= 0.2). To be noted: 50 µM.

Structures are written as SMILES. This is one part of the list.

For the compound `Cc1cccc(NC(=O)Nc2ccc3c(c2)C(=O)N(C)[C@@H]2CC[C@@H](CC(=O)NCc4ccccc4Cl)O[C@@H]2CO3)c1`, the cytotoxicity call with HSkMC and in the assay on HepG2 was “inactive” in each case. For the same compound, in the assay with S. aureus RN4220, the growth inhibition call is “inactive”.

For `Cc1ccc(S(=O)(=O)N(C)C[C@@H]2Oc3ccc(NC(=O)Cn4cnnn4)cc3C(=O)N([C@@H](C)CO)C[C@H]2C)cc1`, the cytotoxicity call with HSkMC and in the assay with HepG2 was “inactive” throughout. Also, the growth inhibition call in the assay on S. aureus RN4220 is “inactive”.

As to `C[C@@H]1CN([C@@H](C)CO)C(=O)c2cc(NC(=O)Nc3ccc(F)cc3)ccc2O[C@@H](C)CCCCO[C@@H]1CN(C)C(=O)Nc1ccc2c(c1)OCO2`, the cytotoxicity call with HSkMC and in the assay on HepG2 was “inactive” throughout. In addition, the growth inhibition call with S. aureus RN4220 was “inactive”.

Regarding `COc1ccc(S(=O)(=O)Nc2ccc3c(c2)C(=O)N([C@@H](C)CO)C[C@@H](C)[C@H](CN(C)C(=O)NC(C)C)O3)cc1`, the cytotoxicity call with HSkMC and in the assay with HepG2 was “inactive” throughout. Further, the growth inhibition call in the assay with S. aureus RN4220 was “inactive”.

For `COc1ccc(S(=O)(=O)Nc2ccc3c(c2)C(=O)N([C@@H](C)CO)C[C@@H](C)[C@H](CN(C)C(=O)Nc2ccccc2)OCCCC[C@@H](C)O3)cc1`, the cytotoxicity call with HSkMC and in the assay with HepG2 was “inactive” each time. Moreover, the growth inhibition call in the assay with S. aureus RN4220 was “inactive”.

With `Cc1noc(C)c1S(=O)(=O)Nc1ccc2c(c1)C(=O)N([C@H](C)CO)C[C@H](C)[C@H](CN(C)C(=O)Nc1ccc(F)cc1)OCCCC[C@@H](C)O2`, the cytotoxicity call in the assay on HSkMC and in the assay with HepG2 was “inactive” in each case. For the same compound, the growth inhibition call in the assay on S. aureus RN4220 is “inactive”.

As to `C[C@@H]1CCCCO[C@H](CN(C)S(=O)(=O)c2cccs2)[C@@H](C)CN([C@@H](C)CO)C(=O)c2cc(NS(=O)(=O)c3ccc(Cl)cc3)ccc2O1`, the cytotoxicity call in the assay with HSkMC and in the assay with HepG2 was “inactive” throughout. In the assay with S. aureus RN4220, the growth inhibition call is “inactive”.

`O=C1CO[C@H]2CN(C(=O)COc3ccccc3)C[C@@H]2N1`: the cytotoxicity call in the assay on HSkMC and in the assay with HepG2 was “inactive” throughout. The growth inhibition call in the assay on S. aureus RN4220 is “inactive”.

Consider `COc1ccc(S(=O)(=O)N(C)C[C@H]2Oc3c(NC(=O)Nc4c(C)noc4C)cccc3C(=O)N([C@@H](C)CO)C[C@@H]2C)cc1`, for which the cytotoxicity call with HSkMC and in the assay on HepG2 was “inactive” each time. For the same compound, in the assay with S. aureus RN4220, the growth inhibition call is “inactive”.

On to `OCc1c[nH]c2ccccc12`, for which the cytotoxicity call in the assay on HSkMC is “inactive”. In addition, the cytotoxicity call with HepG2 was “active”. For the same compound, in the assay on S. aureus RN4220, the growth inhibition call is “inactive”.

Regarding `CO[C@@H]1CN(C)C(=O)c2ccc(NS(=O)(=O)c3cn(C)cn3)cc2OC[C@@H](C)N(Cc2cccc(F)c2)C[C@@H]1C`, the cytotoxicity call with HSkMC and in the assay with HepG2 was “inactive” throughout. In addition, the growth inhibition call in the assay on S. aureus RN4220 is “inactive”.

For `CC[C@H](C)[C@H](N)C1=N[C@H](C(=O)N[C@@H](CC(C)C)C(=O)N[C@H](CCC(=O)O)C(=O)N[C@H](C(=O)N[C@H]2CCCCNC(=O)[C@H](CC(N)=O)NC(=O)[C@@H](CC(=O)O)NC(=O)[C@H](Cc3cnc[nH]3)NC(=O)[C@@H](Cc3ccccc3)NC(=O)[C@H]([C@@H](C)CC)NC(=O)[C@@H](CCCN)NC2=O)[C@@H](C)CC)CS1`, the cytotoxicity call with HSkMC and in the assay on HepG2 was “inactive” in each case. The growth inhibition call with S. aureus RN4220 was “active”.

In the case of `O=C(C[C@@H]1CC[C@H]2[C@@H](COC[C@H](O)CN2S(=O)(=O)c2ccccc2F)O1)NCc1ccccc1F`, the cytotoxicity call in the assay with HSkMC and in the assay with HepG2 was “inactive” throughout. In the assay on S. aureus RN4220, the growth inhibition call is “inactive”.

Turning to `Cc1noc(C)c1NC(=O)Nc1ccc2c(c1)C(=O)N([C@H](C)CO)C[C@H](C)[C@@H](CN(C)Cc1ccc(C(F)(F)F)cc1)OCCCC[C@H](C)O2`, the cytotoxicity call with HSkMC and with HepG2 was “inactive” each time. Besides, the growth inhibition call with S. aureus RN4220 is “inactive”.

As to `C[C@H](CO)N1C[C@H](C)[C@@H](CN(C)C(=O)Nc2cccc3ccccc23)OCCCC[C@H](C)Oc2ccc(NC(=O)Nc3ccc(F)cc3)cc2C1=O`, the cytotoxicity call with HSkMC and in the assay with HepG2 was “inactive” in each case. In addition, in the assay on S. aureus RN4220, the growth inhibition call was “inactive”.

Regarding `C[C@@H]1CCCCO[C@H](CN(C)C(=O)Cc2ccccc2)[C@H](C)CN([C@@H](C)CO)C(=O)c2cc(NS(=O)(=O)c3ccc(F)cc3)ccc2O1`, the cytotoxicity call in the assay with HSkMC and with HepG2 was “inactive” throughout. Besides, the growth inhibition call in the assay with S. aureus RN4220 was “inactive”.

Turning to `Cn1ccnc1`, the cytotoxicity call in the assay with HSkMC and with HepG2 was “inactive” throughout. In addition, the growth inhibition call in the assay with S. aureus RN4220 was “inactive”.

Consider `COc1ccc(NC(=O)N(C)C[C@H]2Oc3ccc(NC(=O)C4CC4)cc3C(=O)N([C@@H](C)CO)C[C@@H]2C)cc1`, for which the cytotoxicity call with HSkMC and with HepG2 was “inactive” in each case. Also, in the assay with S. aureus RN4220, the growth inhibition call was “inactive”.

Regarding `C[N+](C)(C)CCCCNC(=O)[C@H]1C[C@H]2C(=O)N[C@@H](CCCC[N+](C)(C)C)C(=O)N2[C@H]1c1cccc(OCCO)c1`, the cytotoxicity call in the assay on HSkMC and in the assay with HepG2 was “inactive” throughout. Besides, the growth inhibition call with S. aureus RN4220 is “inactive”.

With `C[C@@H]1CN([C@H](C)CO)C(=O)CCCn2cc(nn2)CO[C@H]1CN(C)C(=O)Nc1ccnc(N2CCOCC2)c1`, the cytotoxicity call in the assay on HSkMC and in the assay with HepG2 was “inactive” each time. Further, the growth inhibition call with S. aureus RN4220 was “inactive”.

With `Cc1c2oc3c(C)ccc(C(=O)N[C@@H]4C(=O)N[C@@H](C(C)C)C(=O)N5CCC[C@H]5C(=O)N(C)CC(=O)N(C)[C@@H](C(C)C)C(=O)O[C@@H]4C)c3nc-2c(C(=O)N[C@@H]2C(=O)N[C@@H](C(C)C)C(=O)N3CCC[C@H]3C(=O)N(C)CC(=O)N(C)[C@@H](C(C)C)C(=O)O[C@@H]2C)c(N)c1=O`, the cytotoxicity call with HSkMC was “inactive”. Besides, the cytotoxicity call in the assay on HepG2 was “active”. In addition, the growth inhibition call in the assay on S. aureus RN4220 is “active”.

As for `O=C(C[C@@H]1C[C@H]2c3cc(NC(=O)c4ccc5c(c4)OCO5)ccc3O[C@H]2[C@@H](CO)O1)NCCc1ccccc1`, the cytotoxicity call in the assay with HSkMC and in the assay on HepG2 was “inactive” in each case. Besides, in the assay with S. aureus RN4220, the growth inhibition call is “inactive”.

Consider `COc1cccc(NC(=O)N[C@@H]2C=C[C@H](CC(=O)N3CCN(C)CC3)O[C@@H]2CO)c1`, for which the cytotoxicity call in the assay on HSkMC (human skeletal muscle cells) and in the assay on HepG2 was “inactive” throughout. Besides, the growth inhibition call in the assay on S. aureus RN4220 was “inactive”.

With `C=C1C=[N+]([O-])N(c2ccc(C(=O)O)cc2)N1`, the cytotoxicity call with HSkMC and in the assay on HepG2 was “inactive” each time. The growth inhibition call in the assay with S. aureus RN4220 is “inactive”.

On to `CCS(=O)(=O)Nc1ccc2c(c1)C(=O)N(C)C[C@@H](OC)[C@@H](C)CN(Cc1nccs1)[C@H](C)CO2`, for which the cytotoxicity call in the assay with HSkMC and in the assay with HepG2 was “inactive” each time. Moreover, the growth inhibition call in the assay with S. aureus RN4220 was “inactive”.

`CN1C(=O)c2cc(NS(=O)(=O)c3ccc(F)cc3)ccc2OC[C@H]2O[C@H](CC(=O)NCC(F)(F)F)CC[C@@H]21`: the cytotoxicity call in the assay with HSkMC and with HepG2 was “inactive” in each case. Further, in the assay on S. aureus RN4220, the growth inhibition call was “inactive”.

Take `O=C(NO)c1ccc(C(=O)N/N=C/[C@H](O)[C@@H](O)[C@@H](O)[C@H](O)CO)cc1`: the cytotoxicity call in the assay with HSkMC and with HepG2 was “inactive” each time. Also, in the assay on S. aureus RN4220, the growth inhibition call is “inactive”.
